Reference: PubChem BioAssay (NCATS)
Inconclusive means that the source gave no clear call. Such entries were picked first, then a sample of the others. A potency beside an inconclusive call is a rough fit, not a confirmed value. The source made the active and inactive calls. Calls follow the shape of the dose curve; as a rule, active = well fitted curve in the direction sought with a large enough effect; inconclusive = small, poorly fitted or top-dose-only effect, or another doubt; inactive = no such curve, though single readings can be large; an effect the other way counts as inactive or inconclusive.

Columns and labels:
[1] = biological target: Rap guanine nucleotide exchange factor 3 (Homo sapiens) (UniProt O95398); assay: Confirmatory qHTS for antagonist of cAMP-regulated guanine nucleotide exchange factor 3 (EPAC1) (AID 1645880); conditions: EPAC1 Rap1B-BODIPY-GDP exchange, fluorescence; activity, negative = inhibition: at 115 µM (top of the series); also: nearly all actives have a fitted effect of over 55% in size;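 as to activity, negative = inhibition: plate controls were DMSO only for no effect and full effect of the ATA control for full effect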
Summary of the method: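 Nucleotide exchange uses 100 nM EPAC1, 250 nM RAP1B-BODIPY-GDP and 50 uM GDP, with compounds in a concentration-titration series. After 5 min at room temperature, fluorescence (480 nm ex/540 nm em) is read every 5 min for 30 min. Data are normalized to control ATA and DMSO.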

[2] = biological target: Rap guanine nucleotide exchange factor 4 (Homo sapiens) (UniProt Q8WZA2); assay: Confirmatory qHTS for agonist of cAMP-regulated guanine nucleotide exchange factor 4 (EPAC2) (AID 1645884); conditions: EPAC2 GEF activity, Rap1B-BODIPY-GDP fluorescence; activation: at 154 µM (top of the series), percent relative to cAMP agonist control;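 also: nucleotide exchange releases bodipy-GDP from Rap1 and this lowers its fluorescence; nearly all actives have a fitted effect of over 65% in size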; as to activation: % is scaled to controls: 0 for no effect and ±100 for the full control effect
[3] = biological target: Rap guanine nucleotide exchange factor 3 (Homo sapiens) (UniProt O95398); assay: Counterscreen qHTS for agonist of cAMP-regulated guanine nucleotide exchange factor 3 (EPAC1) (AID 1645889); conditions: EPAC1 Rap1B-BODIPY-GDP exchange, fluorescence; activation: at 154 µM (top of the series) unless noted; also: nearly all actives have a fitted effect of over 40% in size; as to activation: % of control where 0% means no effect
Summary of the method: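 Measured: fluorescence of BODIPY-GDP bound to Rap1B, which falls as exchange proceeds. Conditions include 50 uM competing GDP, 5 and 30 min reads, and a later cAMP challenge for antagonist detection.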
Potency is read from the fitted curve at half-maximal effect; tags tell the direction and shape of the fitted curve.

Sequence of UniProt Q8WZA2 (Q8WZA2 whole entry, looked up): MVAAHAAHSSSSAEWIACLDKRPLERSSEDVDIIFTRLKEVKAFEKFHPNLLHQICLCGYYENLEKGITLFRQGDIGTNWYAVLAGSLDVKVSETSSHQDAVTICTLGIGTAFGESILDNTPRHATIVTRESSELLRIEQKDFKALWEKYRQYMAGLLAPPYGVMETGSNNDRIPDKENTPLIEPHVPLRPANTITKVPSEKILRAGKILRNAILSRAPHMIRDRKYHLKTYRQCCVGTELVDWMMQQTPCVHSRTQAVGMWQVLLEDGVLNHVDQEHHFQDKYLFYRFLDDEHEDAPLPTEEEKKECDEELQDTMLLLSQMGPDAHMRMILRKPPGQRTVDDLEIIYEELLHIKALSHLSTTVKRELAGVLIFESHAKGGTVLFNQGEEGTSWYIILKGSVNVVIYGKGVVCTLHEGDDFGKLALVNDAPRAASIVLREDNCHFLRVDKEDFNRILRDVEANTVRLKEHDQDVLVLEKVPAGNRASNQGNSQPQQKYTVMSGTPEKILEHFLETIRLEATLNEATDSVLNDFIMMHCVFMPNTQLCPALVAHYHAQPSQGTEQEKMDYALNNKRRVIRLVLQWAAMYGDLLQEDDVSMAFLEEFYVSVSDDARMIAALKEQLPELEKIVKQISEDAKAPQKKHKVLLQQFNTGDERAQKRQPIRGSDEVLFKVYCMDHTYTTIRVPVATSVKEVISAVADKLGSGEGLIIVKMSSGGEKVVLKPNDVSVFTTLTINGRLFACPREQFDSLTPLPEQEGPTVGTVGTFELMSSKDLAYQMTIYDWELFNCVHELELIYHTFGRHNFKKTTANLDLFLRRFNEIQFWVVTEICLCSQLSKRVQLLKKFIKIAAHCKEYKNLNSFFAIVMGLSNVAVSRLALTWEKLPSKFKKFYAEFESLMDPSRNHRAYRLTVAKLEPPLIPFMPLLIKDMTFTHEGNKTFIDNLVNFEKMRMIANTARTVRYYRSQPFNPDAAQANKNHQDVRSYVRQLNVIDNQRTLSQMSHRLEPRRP
Sequence of UniProt O95398 (O95398 whole entry, looked up): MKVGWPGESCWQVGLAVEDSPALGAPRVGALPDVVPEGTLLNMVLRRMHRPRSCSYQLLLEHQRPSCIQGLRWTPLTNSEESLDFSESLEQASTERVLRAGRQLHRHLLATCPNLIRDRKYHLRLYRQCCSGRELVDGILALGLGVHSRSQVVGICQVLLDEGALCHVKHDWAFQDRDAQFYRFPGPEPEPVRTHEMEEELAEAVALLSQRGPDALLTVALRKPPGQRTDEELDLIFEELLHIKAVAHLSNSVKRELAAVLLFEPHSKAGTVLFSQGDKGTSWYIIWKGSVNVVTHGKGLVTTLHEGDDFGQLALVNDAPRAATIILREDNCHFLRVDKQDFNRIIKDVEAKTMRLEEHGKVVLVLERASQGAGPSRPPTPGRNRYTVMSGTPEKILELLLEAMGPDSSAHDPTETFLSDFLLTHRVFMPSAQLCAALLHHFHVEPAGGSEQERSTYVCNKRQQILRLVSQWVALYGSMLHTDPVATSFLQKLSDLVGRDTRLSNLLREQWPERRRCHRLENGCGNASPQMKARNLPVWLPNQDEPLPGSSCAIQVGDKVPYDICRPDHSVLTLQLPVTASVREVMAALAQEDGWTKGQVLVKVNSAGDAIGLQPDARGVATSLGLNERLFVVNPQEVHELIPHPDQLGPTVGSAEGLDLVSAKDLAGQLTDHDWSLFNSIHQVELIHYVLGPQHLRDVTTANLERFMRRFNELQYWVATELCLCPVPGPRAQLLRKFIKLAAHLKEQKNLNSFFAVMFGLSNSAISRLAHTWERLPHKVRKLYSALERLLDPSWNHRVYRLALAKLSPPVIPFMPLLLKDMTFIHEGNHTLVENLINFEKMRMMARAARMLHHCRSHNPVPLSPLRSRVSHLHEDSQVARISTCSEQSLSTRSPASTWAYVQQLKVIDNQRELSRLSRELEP

SMILES	Potency [1]	activation [2]	activation [3]	Potency [2]	Potency [3]
CC(=O)N1N=C(N)SC1c1ccc(Cl)c(Cl)c1 (stereo unspecified)	inactive	inactive: -0.153% [at 17.1 µM, percent relative to cAMP agonist control]	inconclusive: 42% [activator] [at 30.8 µM]	–	–
COc1ccc(C(=O)c2c(-c3ccc(OC)cc3)oc3ccccc23)cc1	inactive	–	–	inactive	inconclusive: 126 µM [activator, single point]
O=C(OCC1OC(n2ncc(=O)[nH]c2=O)C(OC(=O)c2ccccc2)C1OC(=O)c1ccccc1)c1ccccc1 (stereo unspecified)	inconclusive: 56.2 µM [inhibitor, partial curve, poor fit]	inactive: 0.888% [at 17.1 µM, percent relative to cAMP agonist control]	–	–	inconclusive: 3.16 µM [activator, partial curve, poor fit]
O=C1CN(C(=O)c2c(F)cccc2Cl)C(c2ccc(F)cc2)c2cc(Br)ccc2N1 (stereo unspecified)	inconclusive: 95.3 µM [inhibitor, partial curve, poor fit]	–	inconclusive: 53.4% [activator]	inconclusive: 56.2 µM [activator, partial curve, poor fit]	–
Cc1ccc(S(=O)(=O)N/N=C/c2cc(Br)ccc2O)cc1	inconclusive: 75.7 µM [inhibitor, partial curve, poor fit]	–	–	inactive	inactive
COc1ccc(C(=S)N2CCOCC2)cc1OC(=O)c1ccccc1Cl	inactive	–	inconclusive: 47.9% [activator]	inconclusive: 112 µM [activator, partial curve, poor fit]	–
Cc1cccc(N(C)S(=O)(=O)c2c[nH]c3ccc([N+](=O)[O-])cc23)c1	inconclusive: 26.9 µM [inhibitor, partial curve, poor fit]	–	–	inactive	inconclusive: 7.08 µM [activator, partial curve, poor fit]
O=C(CSc1ccc(-c2ccco2)nn1)c1cccc([N+](=O)[O-])c1	inconclusive: 75.7 µM [inhibitor, partial curve]	–	–	inactive	inconclusive: 0.316 µM [activator, full curve, poor fit]
COc1ccc(CCNC(=O)CSc2nc3nc(C)c(Cc4ccc(C)cc4)c(C)n3n2)cc1OC	inactive	–	–	inactive	inconclusive: 15.8 µM [activator, partial curve, poor fit]
N#C/C(=C/c1ccc(O)c(O)c1)c1nc2ccccc2[nH]1	active: 6.01 µM	–	–	inactive	inconclusive: 22.4 µM [activator, partial curve, poor fit]
Cc1csc2nc(-c3cccc(NC(=O)c4cccc(F)c4)c3)cn12	inconclusive: 84.9 µM [inhibitor, partial curve]	–	inconclusive: 84.1% [activator]	inconclusive: 50.1 µM [activator, single point]	–
COc1ccccc1CN(C)C(=O)C(c1ccccc1)c1ccccc1	inconclusive: 26.9 µM [inhibitor, partial curve, poor fit]	–	inconclusive: 43.5% [activator]	inconclusive: 112 µM [activator, partial curve, poor fit]	–
CCC(C)n1c(SCC(=O)Nc2ccc3[nH]c(=O)[nH]c3c2)nc2ccccc2c1=O (stereo unspecified)	inconclusive: 44.7 µM [inhibitor, partial curve, poor fit]	inactive: 1.51% [at 17.1 µM, percent relative to cAMP agonist control]	inactive: 13.5% [at 30.8 µM]	–	–
CC1=CC(C)(C)N2C(=O)C(=Nc3ccc(O)cc3)c3cccc1c32	inconclusive: 42.6 µM [inhibitor, partial curve, poor fit]	–	–	inconclusive: 112 µM [activator, partial curve, poor fit]	inactive
O=c1[nH]c(Nc2ccc(F)cc2)cc2ccccc12	inconclusive: 67.5 µM [inhibitor, partial curve, poor fit]	–	–	inconclusive: 89.1 µM [activator, partial curve, poor fit]	inconclusive: 1.41 µM [activator, full curve, poor fit]
Cn1c(COc2ccccc2C(C)(C)C)nc2ccccc21	inconclusive: 75.7 µM [inhibitor, partial curve]	–	–	inactive	active: 15.8 µM
Oc1[nH]c2ccccc2c1N=Nc1ccccc1F	inactive	–	–	inconclusive: 126 µM [activator, single point]	active: 11.2 µM
